# From PubChem BioAssay AID504333 (National Center for Advancing Translational Sciences (NCATS), 2011)
# Among all 360,000 compounds or so, about 16,000 (4.4%) were called active. The inconclusive results got no clear call from the source; some entries with a clear call stand among them for comparison. The call rests on the fitted dose curve; in most records, active means well fitted inhibition curve with a large enough effect; inconclusive means small, poorly fitted or top-dose-only effect; inactive means no such curve, though single readings can be large or run the other way. A potency beside an inconclusive call is a rough fit, not a confirmed value.
# Target: Bromodomain adjacent to zinc finger domain protein 2B (Homo sapiens) (UniProt Q9UIF8)
# Experiment: qHTS Assay for Inhibitors of BAZ2B; further: nearly all actives have a fitted effect of over 60% in size
# Conditions: AlphaScreen BAZ2B-H3K14Ac peptide displacement; activity change, negative = inhibition: at 114 µM (top of the series)
# Method in brief: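 Complex of BAZ2B and biotin-H3K14Ac (50 nM apiece) forms over 30 min at RT, then faces library compounds up to 110 uM for another 30 min; AlphaScreen beads added, 20 min dark incubation, luminescence read.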
# On the % scale 0 is the no-effect control and ±100 the full control effect; potency means the concentration at half of the fitted maximal effect; tags describe the fitted curve by direction and shape.
# Chain of UniProt Q9UIF8 (Q9UIF8 whole entry, looked up, the tested form may be a part): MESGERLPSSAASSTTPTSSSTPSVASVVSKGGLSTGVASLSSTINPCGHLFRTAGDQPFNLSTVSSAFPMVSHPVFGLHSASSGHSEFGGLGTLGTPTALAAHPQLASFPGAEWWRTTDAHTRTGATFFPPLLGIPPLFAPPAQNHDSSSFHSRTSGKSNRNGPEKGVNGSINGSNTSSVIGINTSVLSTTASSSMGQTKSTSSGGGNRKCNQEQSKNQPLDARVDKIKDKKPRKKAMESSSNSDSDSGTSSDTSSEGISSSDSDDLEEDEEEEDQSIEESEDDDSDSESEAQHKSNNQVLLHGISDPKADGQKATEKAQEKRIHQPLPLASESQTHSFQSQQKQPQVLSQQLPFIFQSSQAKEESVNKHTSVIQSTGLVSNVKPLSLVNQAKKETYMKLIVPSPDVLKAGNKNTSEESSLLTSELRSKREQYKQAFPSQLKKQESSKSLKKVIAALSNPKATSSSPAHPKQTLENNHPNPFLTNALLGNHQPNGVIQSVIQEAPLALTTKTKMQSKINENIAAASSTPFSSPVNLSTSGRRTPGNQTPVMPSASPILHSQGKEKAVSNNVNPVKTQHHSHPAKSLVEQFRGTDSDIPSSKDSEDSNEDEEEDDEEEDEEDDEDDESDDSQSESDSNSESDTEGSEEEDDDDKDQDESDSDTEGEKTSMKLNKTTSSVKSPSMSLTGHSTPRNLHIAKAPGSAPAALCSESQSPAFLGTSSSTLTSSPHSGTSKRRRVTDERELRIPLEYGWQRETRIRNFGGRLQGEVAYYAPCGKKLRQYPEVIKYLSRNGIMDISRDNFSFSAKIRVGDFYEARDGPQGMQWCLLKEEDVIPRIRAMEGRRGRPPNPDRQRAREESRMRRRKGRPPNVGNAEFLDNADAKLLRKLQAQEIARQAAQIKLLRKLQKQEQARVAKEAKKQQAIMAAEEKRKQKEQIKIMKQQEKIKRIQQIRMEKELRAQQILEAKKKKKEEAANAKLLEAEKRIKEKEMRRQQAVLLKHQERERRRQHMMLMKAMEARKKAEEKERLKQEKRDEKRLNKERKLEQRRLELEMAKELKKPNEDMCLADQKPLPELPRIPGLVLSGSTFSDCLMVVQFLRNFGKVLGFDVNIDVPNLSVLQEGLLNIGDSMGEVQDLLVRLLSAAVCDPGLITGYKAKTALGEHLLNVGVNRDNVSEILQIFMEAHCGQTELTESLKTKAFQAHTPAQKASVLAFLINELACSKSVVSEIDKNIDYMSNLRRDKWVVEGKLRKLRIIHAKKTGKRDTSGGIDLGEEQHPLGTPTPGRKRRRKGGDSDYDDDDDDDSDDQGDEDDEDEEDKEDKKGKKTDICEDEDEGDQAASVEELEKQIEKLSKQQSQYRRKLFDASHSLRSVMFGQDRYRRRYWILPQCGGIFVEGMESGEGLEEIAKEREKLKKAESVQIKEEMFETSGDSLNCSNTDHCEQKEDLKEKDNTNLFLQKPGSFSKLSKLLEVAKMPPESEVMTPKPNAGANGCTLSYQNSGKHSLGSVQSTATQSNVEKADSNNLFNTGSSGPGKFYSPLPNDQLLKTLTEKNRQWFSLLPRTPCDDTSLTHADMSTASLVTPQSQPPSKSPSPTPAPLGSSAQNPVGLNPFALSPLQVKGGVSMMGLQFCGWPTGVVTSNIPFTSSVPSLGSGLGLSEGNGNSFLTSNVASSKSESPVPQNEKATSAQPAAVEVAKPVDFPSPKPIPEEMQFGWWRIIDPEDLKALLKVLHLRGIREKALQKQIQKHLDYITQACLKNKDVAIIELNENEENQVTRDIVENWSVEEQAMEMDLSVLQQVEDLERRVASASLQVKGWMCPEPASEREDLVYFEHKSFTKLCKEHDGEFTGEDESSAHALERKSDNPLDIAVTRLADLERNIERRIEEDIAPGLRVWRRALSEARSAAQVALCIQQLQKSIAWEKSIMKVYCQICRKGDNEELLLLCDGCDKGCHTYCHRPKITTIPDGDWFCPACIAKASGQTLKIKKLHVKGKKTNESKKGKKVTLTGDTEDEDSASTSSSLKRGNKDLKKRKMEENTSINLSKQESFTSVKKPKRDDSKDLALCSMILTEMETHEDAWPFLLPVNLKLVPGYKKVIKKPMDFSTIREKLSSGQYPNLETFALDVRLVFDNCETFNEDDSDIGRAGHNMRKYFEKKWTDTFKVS
Structure (SMILES),Potency,"activity change, negative = inhibition"
O=C(NCCN1CCCc2ccccc21)C1CCC(=O)N(CCc2ccccc2)C1 (stereo not drawn),"inconclusive: 79.4 µM [inhibitor, single point]",–
CN(C)c1ccc(N=Nc2ccccc2C(=O)OCC(=O)N2CCCCCC2)cc1,active: 12.6 µM,–
OC(COc1ccc(Cl)c2ccccc12)CN1CCN(c2ccccn2)CC1 (stereo not drawn),"inconclusive: 35.5 µM [inhibitor, full curve]",–
O=S(=O)(Nc1cc(S(=O)(=O)N2CCOCC2)ccc1NCC1CCCO1)c1ccccc1F (stereo not drawn),inactive,–
COCCn1c(SCCN2CCCCC2)nc2ccccc2c1=O,–,inconclusive: -43.7% [inhibitor]
COc1cccc(CNCCO)c1OCc1ccccc1,inactive,–
Oc1c(-c2cc(-c3ccco3)[nH]n2)ccc2ccccc12,"inconclusive: 35.5 µM [inhibitor, full curve]",–
CC(=O)N1CCc2c(sc(NC(=O)CN3C(=O)c4ccccc4C3=O)c2C(N)=O)C1,"inconclusive: 89.1 µM [inhibitor, single point]",–
CC(NC(=O)CCCc1c[nH]c2ccccc12)c1ccc(F)cc1 (stereo not drawn),"inconclusive: 79.4 µM [inhibitor, single point]",–
Oc1c(C(c2ccccc2Cl)N2CCCC2)sc2nc(-c3ccco3)nn12 (stereo not drawn),"inconclusive: 0.794 µM [inhibitor, full curve, poor fit]",–
Clc1ccccc1CN1CCN(c2ncccn2)CC1,"inconclusive: 89.1 µM [inhibitor, single point]",–
COc1ccc(C(c2nnnn2C2CCCC2)N2CCc3ccccc3C2)cc1OC (stereo not drawn),"inconclusive: 89.1 µM [inhibitor, single point]",–
COc1ccc(-c2noc(CSc3nnc(-c4ccncc4)n3-c3ccc(C)cc3)n2)cc1OC,inactive,–
O=C(Cn1c(=O)n(Cc2ccc3c(c2)OCO3)c(=O)c2oc3ccccc3c21)Nc1ccc(F)cc1,inactive,–
Cc1ccc(/C=N/N2CCN(Cc3cccc4ccccc34)CC2)o1,active: 50.1 µM,–
C=CCOC(=O)C(C#N)c1nc2ccccc2nc1N1CCN(Cc2ccccc2)CC1 (stereo not drawn),"inconclusive: 39.8 µM [inhibitor, full curve]",–
CC(C)(C)C(=O)c1sc(Nc2ccccc2)nc1N,active: 50.1 µM,–
Cc1cccc(C)c1OCc1cc(C(=O)N2CCC(c3ccncc3)CC2)no1,"inconclusive: 79.4 µM [inhibitor, single point]",–
CCCCNS(=O)(=O)c1cccc(S(=O)(=O)N2CCCC2)c1,inactive,–
Cc1oc(-c2ccccc2Cl)nc1CS(=O)(=O)CC(=O)N1CCOCC1,inactive,–
CCOC(=O)c1cnc2c(C)c(-c3ccccc3)[nH]n2c1=O,"inconclusive: 79.4 µM [inhibitor, single point]",–
COc1ccc(NS(=O)(=O)c2ccc3c(c2)CCN3C(=O)CCC(=O)O)cc1OC,inactive,–
O=C1CSC(c2ccccc2F)N1 (stereo not drawn),"inconclusive: 89.1 µM [inhibitor, single point]",–
CC(=O)NC(c1ccc(C)cc1)c1cc([N+](=O)[O-])c2cccnc2c1O (stereo not drawn),active: 4.47 µM,–
Cc1cccn2cc(CNS(=O)(=O)c3ccc4ccccc4c3)nc12,"inconclusive: 89.1 µM [inhibitor, single point]",–

Structure (SMILES),Potency,"activity change, negative = inhibition"
C=CCn1c(=O)c(C(=O)NCCN(CC)CC)c(O)c2ccccc21,"inconclusive: 89.1 µM [inhibitor, single point]",–
C=CCc1cc(Cl)ccc1OCCOCCN(C)C,active: 50.1 µM,–
C=CCn1c(=O)c2ccccc2n2c(SCC(=O)N(C)C)nnc12,inactive,–
Cc1cc(C(=O)Nc2nnc(C(F)(F)F)s2)cs1,inactive,–
Cc1cc(OCCCCNC(C)C)cc(C(C)C)c1,"inconclusive: 79.4 µM [inhibitor, single point]",–
CC1CCCN(CCCOc2ccc([N+](=O)[O-])cc2)C1 (stereo not drawn),"inconclusive: 79.4 µM [inhibitor, single point]",–
CC(C)(C)NCCOc1ccc(Br)cc1,"inconclusive: 100 µM [inhibitor, single point]",–
COc1ccc(-n2ccn(CC(=O)NCCc3ccccc3)c(=O)c2=O)cc1OC,"inconclusive: 89.1 µM [inhibitor, single point]",–
COC(=O)C1(C)NC(c2ccc(O)cc2)C2C(=O)N(c3ccc4c(c3)OCCO4)C(=O)C21 (stereo not drawn),inactive,–
Cc1[nH]n(-c2ccccc2)c(=O)c1N=Nc1cccc([N+](=O)[O-])c1,"inconclusive: 35.5 µM [inhibitor, partial curve]",–
COc1ccc(-c2cn(Cc3ccc(C(=O)NCc4ccc(C)cc4)cc3)c(C(C)N)n2)cc1 (stereo not drawn),"inconclusive: 44.7 µM [inhibitor, partial curve]",–
C#CCOCCOCCOCCNc1nc(N2CCN(C(=O)[C@H](CCCCN)n3cc([C@@H](N)CO)nn3)CC2)nc(N2CCN(C(=O)[C@H](Cc3cc4ccccc4[nH]3)n3cc([C@@H](N)CO)nn3)CC2)n1,active: 22.4 µM,–
O=C(CNCc1ccc(Cl)cc1)Nc1ccc(C(=O)N2CCCCC2)cc1,active: 56.2 µM,–
COC(=O)/C(N=Nc1cccc(C(F)(F)F)c1)=C(\C)O,inactive,–
COc1cc2c(cc1OC)CN(Cc1cc(=O)oc3cc(C)c(Cl)cc13)CC2,inactive,–
COc1ccc(N2CCN(Cc3nc4c(c(=O)n(C)c(=O)n4C)n3CCc3ccccc3)CC2)cc1,inactive,–
CCn1cc2nc(SCC(=O)Nc3ccc(C)cc3C)n(Cc3ccc(C)cc3)c(=O)c2n1,"inconclusive: 79.4 µM [inhibitor, single point]",–
COc1cc2[nH]c(=S)nc(NCc3ccc(C)cc3)c2cc1OC,inactive,–
C/C(CC(=O)Nc1ccccn1)=N\NC(=O)C(=O)Nc1ccccc1C,"inconclusive: 89.1 µM [inhibitor, single point]",–
CCOC(=O)CNS(=O)(=O)c1cc(-c2nnc(Nc3cccc(O)c3)c3ccccc23)ccc1C,"inconclusive: 31.6 µM [inhibitor, partial curve, poor fit]",–
O=c1sc(/C=N/Nc2ccccc2)c(Cl)n1Cc1ccccc1,"inconclusive: 70.8 µM [inhibitor, single point]",–
CCCc1ccc(C2Sc3ccccc3NC3=C2C(=O)c2ccccc23)cc1 (stereo not drawn),active: 10 µM,–
NC(=O)CNC1CC(=O)N(CCc2ccccc2)C1=O (stereo not drawn),"inconclusive: 15.8 µM [inhibitor, single point]",–
O=C(CCCN1C(=O)/C(=C/c2ccccc2Cl)SC1=S)N1CCOCC1,active: 79.4 µM,–
COC(=O)N1C(=O)[C@@](Cc2ccccc2)(c2ccccc2)N1C(=O)OC,inactive,–

Structure (SMILES),Potency,"activity change, negative = inhibition"
Cc1ccc(C2=NS(=O)(=O)N(C)C(C(=O)Nc3cc(C)n(CC(=O)N4CCCCC4)n3)=C2)cc1,"inconclusive: 89.1 µM [inhibitor, single point]",–
CC1CC2=C(NC(=S)NC2c2ccccc2F)/C(=C/c2ccccc2F)C1 (stereo not drawn),"inconclusive: 14.1 µM [inhibitor, full curve]",–
CCN1C(=O)C(=O)N(CC(=O)N2CCC(C)Sc3ccccc32)C1=O (stereo not drawn),inactive,–
COc1ccc(C(=O)Nc2cc(C)on2)cc1OC,"inconclusive: 89.1 µM [inhibitor, single point]",–
CCc1ccc2[nH]c(=O)c(CN(CCCN3CCOCC3)C(=O)Nc3ccc(Cl)cc3)cc2c1,inactive,–
COc1ccc(N2CCN(CCNC(=O)CCN3C(=O)COc4ccccc43)CC2)cc1,"inconclusive: 35.5 µM [inhibitor, partial curve, poor fit]",–
NC(=O)C1CCN(C2=C(NS(=O)(=O)c3ccc(Br)cc3)C(=O)c3ccccc3C2=O)CC1,active: 39.8 µM,–
O=C(Cn1nc2c(cc1=O)CCCC2)Nc1ccccc1C(F)(F)F,inactive,–
O=C(C1CCCN(c2ncnc3c2nc2n3CCCCC2)C1)N1CCN(c2cccc(Cl)c2)CC1 (stereo not drawn),"inconclusive: 39.8 µM [inhibitor, partial curve]",–
COc1ccc(C[C@H]2CN3C(=NC[C@@H]3Cc3ccc(O)cc3)N2CCNC(=O)c2ccc(C)c(Br)c2)cc1,"inconclusive: 50.1 µM [inhibitor, partial curve]",–
CCC(C)c1ccc(OCCn2ccnc2)cc1 (stereo not drawn),active: 50.1 µM,–
CCc1ccc(C(=O)NNc2ccc(F)cc2)cc1,"inconclusive: 35.5 µM [inhibitor, partial curve]",–
CSCCC(NC(=O)c1ccc(Cl)cc1Cl)C(=O)N1CCCCCCC1 (stereo not drawn),"inconclusive: 89.1 µM [inhibitor, single point]",–
CNC(=S)N1C2CCCC1CC(NC(=O)c1ccc(F)cc1)C2 (stereo not drawn),inactive,–
CCCC(=O)Nc1ccc(Nc2ccccc2)cc1,"inconclusive: 79.4 µM [inhibitor, single point]",–
CC1CC(=O)N(c2ccc(NCc3ccccc3Cl)c([N+](=O)[O-])c2)C1=O (stereo not drawn),"inconclusive: 25.1 µM [inhibitor, full curve]",–
C=CCCC(=O)Nc1nc(C)c(-c2csc(Nc3cccc(OC)c3)n2)s1,"inconclusive: 50.1 µM [inhibitor, partial curve]",–
N#C/C(=C/c1ccc(N2CCOCC2)o1)c1ccc(Br)cc1,active: 44.7 µM,–
Cc1nc(C)n(CC(C)C(=O)N2CCN(S(=O)(=O)c3ccccc3)CC2)n1 (stereo not drawn),inactive,–
CN(CC(=O)Nc1ccc(S(N)(=O)=O)cc1)C1CCCCC1,inactive,–
CCN1CCN(C(=O)C(C)Nc2ccc(OC)cc2OC)CC1 (stereo not drawn),"inconclusive: 50.1 µM [inhibitor, partial curve, poor fit]",–
CCN(CC)c1cc(C)c2cc(NC(=O)/C=C/c3ccc(C)cc3)ccc2n1,inactive,–
Cc1ccc2nc3c(cc(C(=O)NCCCn4ccnc4)n3C)c(=O)n2c1,"inconclusive: 89.1 µM [inhibitor, single point]",–
